Experimental data published in PubChem BioAssay AID485364 (National Center for Advancing Translational Sciences (NCATS), 2010).
Among all 360,000 compounds or so, about 11,000 (3.1%) were called active. This list was built around the results that the source calls inconclusive (neither active nor inactive); the mix of calls is not that of the screen. Calls follow the shape of the dose curve; as a rule, active = well fitted inhibition curve with a large enough effect; inconclusive = small, poorly fitted or top-dose-only effect; inactive = no such curve, though single readings can be large or run the other way. Potencies of inconclusive entries are left out as doubtful fits.

The compounds below were run against Schistosoma mansoni thioredoxin glutathione reductase (TGR) (UniProt Q962Y6) (assay: qHTS Assay for the Inhibitors of Schistosoma Mansoni Peroxiredoxins). Conditions: purified TGR, DTNB reduction, TNB absorbance 405 nm; activity change, negative = inhibition: at 114 µM (top of the series) unless noted.
Outline: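 TGR 20 nM + NADPH 100 uM (dispensed conc.), cpd preinc 15 min RT; start with NADPH (500 uM addition) then DTNB (15 mM addition). Kinetic TNB absorbance, 405 nm filter. Four-parameter Hill fit across titration.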
% is scaled to controls: 0 for no effect and ±100 for the full control effect; potency is read from the fitted curve at half-maximal effect; tags tell the direction and shape of the fitted curve.
Also: nearly all actives have a fitted effect of over 60% in size.

SMILES | Potency | activity change, negative = inhibition
Cn1cc(CCCC(=O)NCc2ccc(F)cc2)c2ccccc21 | inconclusive [inhibitor, single point] | 
O=C(C[N+]1(CC#Cc2ccccc2)CCOCC1)c1ccc(Cl)cc1 | inconclusive [inhibitor, partial curve] | 
CCOC(=O)c1ccc(NC(=O)c2noc3c2CCCC3)cc1 |  | inactive: 4.53%
CCOC(=O)C(C)Sc1nc(-c2ccco2)cc(C(F)(F)F)c1C#N (stereo unspecified) | active: 22.4 µM | 
CC(C)(C)C(=O)NC(=S)Nc1ccc(Cc2ccncc2)cc1 | inconclusive [inhibitor, partial curve] | 
CC(C)(C)c1cc(/C=N/NC(=O)Cc2nc3ccccc3[nH]2)cc(C(C)(C)C)c1O | inconclusive [inhibitor, partial curve] | 
O=C1CCc2cc(S(=O)(=O)N3CCN(C(=O)c4ccco4)CC3)ccc2N1 | inconclusive [inhibitor, partial curve] | 
Cc1ccc(CNC(=O)C(C(=O)NCc2ccc(C)o2)c2ncc(C(F)(F)F)cc2Cl)o1 | inconclusive [inhibitor, partial curve] | 
COC(=O)c1cc(NC2(c3ccccc3)C(=O)c3ccccc3C2=O)cc(C(=O)OC)c1 |  | inactive: 20.9%
Cc1ccc(-n2ncc(C(=O)NCC3CCN(C4CCCC4)C3)c2C2CCN(C(=O)OC(C)(C)C)CC2)cc1C (stereo unspecified) | inconclusive [inhibitor, full curve, poor fit] | 
C/C(=N\Nc1cccc(Cl)c1)C1(C)N(O)C(C)(C)C(c2ccco2)=[N+]1[O-] (stereo unspecified) | inconclusive [inhibitor, partial curve] | 
CCCC(=O)Nc1ccc2c(c1)nc(CCNC(=O)c1ccccc1)n2C |  | inactive: -19.9%
O=C(O)CCc1ccc(-c2ccc(Cl)cc2)n1Cc1ccco1 | active: 39.8 µM | 
Cc1cc2c(nc1C)CCCN2C[C@@H](C)O/N=C1/[C@H]2CCn3c(=O)n(-c4ccccc4)c(=O)n3[C@H]2[C@H](O)[C@@H]2O[C@H]12 | inconclusive [inhibitor, partial curve] | 
Cc1ccc(SCC(=O)Nc2ccc(O)c(-c3nc4cc(C)ccc4o3)c2)cc1 |  | inactive: 3.21%
COC(CSc1ncnc2c1oc1nc3c(cc12)COC(C)(C)C3)OC | active: 28.2 µM | 
Cc1cc(O)c(C(C[N+](=O)[O-])c2ccc(Cl)cc2)c(=O)o1 (stereo unspecified) | inconclusive [inhibitor, partial curve] | 
N[C@@H](Cc1cc(Br)c(O)c(Br)c1)C(=O)O | active: 25.1 µM | 
CC1Cc2ccccc2N1C(=O)CCS(=O)(=O)c1cccs1 (stereo unspecified) | inconclusive [inhibitor, partial curve] | 
CC1CC(CC(=O)NNc2nc(-c3ccccc3)cs2)C(=O)O1 (stereo unspecified) |  | inactive: -10.1%
CCc1ccc(NC(=O)C(=O)NCCN2CCN(C(=O)c3ccco3)CC2)cc1 | inconclusive [inhibitor, partial curve] | 
Cc1cc(S(=O)(=O)Nc2nc(CN3CCOCC3)nc3sc4c(c23)CCCC4)ccc1F |  | inactive: -24.8%
c1cc(CNCCc2ccc3c(c2)OCO3)ccn1 | active: 44.7 µM | 
CC1CCN(Cc2nnnn2CCCC(=O)N(C)C(C)c2ccccn2)CC1 (stereo unspecified) | inconclusive [inhibitor, partial curve] | 

SMILES | Potency | activity change, negative = inhibition
Cc1cccc(N2C(=O)NC(=O)C3(Cc4cc(C)ccc4N(C)C3)C2=O)c1 (stereo unspecified) | inconclusive [inhibitor, single point] | 
COc1ccc(C(=O)c2ccc([N+](=O)[O-])cc2Cl)cc1 | active: 12.6 µM | 
Cc1ccc(N2C(=O)c3ccccc3C2Nc2ccc(S(=O)(=O)N3CCOCC3)cc2)nc1 (stereo unspecified) |  | inactive: -17.9%
CC1=NNC(=O)C1C(c1ccc(Cl)cc1)C(C#N)C#N (stereo unspecified) | active: 11.2 µM | 
S=c1[nH]nc(-c2ccccc2)n1/N=C/C=C/c1ccco1 | inconclusive [inhibitor, partial curve] | 
CN1CCN(c2ccc([N+](=O)[O-])c(NCC3CCCO3)c2)CC1 (stereo unspecified) | inconclusive [inhibitor, single point] | 
N#C/C(=C(/O)CCl)c1nc2c(s1)CCc1ccccc1-2 | active: 7.94 µM | 
COc1ccc(NC2c3ccccc3C(=O)N2Cc2ccccc2Cl)cc1OC (stereo unspecified) | inconclusive [inhibitor, partial curve, poor fit] | 
COc1ccccc1C(=O)NCCC(=O)Nc1ccc(S(=O)(=O)N2CCCC(C)C2)cc1 (stereo unspecified) |  | inactive: -4.82%
Cc1cccc(C)c1NC(=S)NC(=O)CCc1ccccc1 | inconclusive [inhibitor, full curve] | 
COc1ccc2cc(Br)ccc2c1CC(=O)NC(C)(C)C |  | inactive: -1.63%
N#Cc1c(N2CCSCC2)nsc1-c1ccccc1Cl |  | inactive: -7.97%
CCC(C)NC(=O)c1ccc(N2CCC3(CC2)OCCO3)c([N+](=O)[O-])c1 (stereo unspecified) | inconclusive [inhibitor, partial curve] | 
COC(=O)c1ccc(NC(=O)CC2C(=O)N(c3ccccc3)C(=O)N2Cc2ccco2)cc1 (stereo unspecified) | inconclusive [inhibitor, partial curve] | 
O=C(NC1CCCCC1)C1c2ccccc2C(=O)N1Cc1ccco1 (stereo unspecified) | active: 39.8 µM | 
COc1cc(C(=O)Nc2nonc2-c2ccc(Cl)cc2)cc(OC)c1OC |  | inactive: -1.38%
O=C1NC(=O)C(=Cc2ccc3ccccc3c2)C(=O)N1 | inconclusive [inhibitor, partial curve] | 
Cc1ccc(CN2CCN(Cc3nc4ccccc4nc3C)CC2CCO)cc1 (stereo unspecified) | active: 31.6 µM | 
O=C(Nc1ccc(-c2nc3ccccc3[nH]2)cc1)c1ccco1 | inconclusive [inhibitor, single point] | 
CC(CNC(=O)c1ccc(-c2ccccc2)cc1)CN(C)C (stereo unspecified) | inconclusive [inhibitor, partial curve] | 
COc1ccc(C(=O)OCC(=O)c2ccc(C3CCCCC3)cc2)cc1 | inconclusive [inhibitor, partial curve] | 
CN(C)c1ccc(S(=O)(=O)N2CCCCC2)cc1NC(=O)CCNC(=O)c1ccco1 | inconclusive [inhibitor, partial curve] | 
CN(C)S(=O)(=O)c1ccc(NC(=O)CSc2nnnn2C)cc1 | inconclusive [inhibitor, partial curve] | 
CC(=O)c1ccccc1NC(=O)COC(=O)/C=C/c1ccc(OC(F)F)cc1 | inconclusive [inhibitor, partial curve] | 

SMILES | Potency | activity change, negative = inhibition
O=C1CC(c2ccco2)CC(O)=C1C=NCCN1CCN(C2CC(=O)N(c3ccccc3)C2=O)CC1 (stereo unspecified) | inconclusive [inhibitor, partial curve] | 
CC(C)(C)NC(=O)CSc1nnc(-c2c[nH]c3ccccc23)o1 | inconclusive [inhibitor, single point] | 
COc1ccc(CC(=O)N[C@@H](C)C(=O)N2CCC3(CC2)NCCc2[nH]cnc23)cc1 | inconclusive [inhibitor, partial curve] | 
Cc1cc(C)c2c(CN3CCN(CCO)CC3)cc(=O)oc2c1 |  | inactive: 8.9%
COc1cccc(-n2c(SCC(=O)NC3CCCC3)nnc2-c2ccco2)c1 | inconclusive [inhibitor, single point] | 
COc1ccc(NC2CC(=O)N(c3ccccc3)C2=O)cc1 (stereo unspecified) | inconclusive [inhibitor, partial curve] | 
O=C(CNC(=O)c1ccccc1F)N/N=C/c1cc(Br)ccc1OC(=O)/C=C/c1ccco1 |  | inactive: -33.7%
COC(=O)C1Cc2c([nH]c3ccccc23)C(C(C)C)N1 (stereo unspecified) | inconclusive [inhibitor, partial curve] | 
COc1ccc(-c2ccc(CCC(=O)O)n2-c2cc(Cl)ccc2O)cc1 | inconclusive [inhibitor, partial curve] | 
COc1ccc(S(=O)(=O)N2CCC(C(=O)NC3CCCC3)CC2)cc1OC | inconclusive [inhibitor, full curve, poor fit] | 
CC(C)OP(=O)(c1ccc(N(C)C)cc1)C(O)c1ccc(N(C)C)cc1 (stereo unspecified) |  | inactive: 18.9%
O=S(=O)(NCCCNS(=O)(=O)c1c(F)cccc1F)c1ccc2c(c1)OCCO2 |  | inactive: -18.3%
Cc1ncc(CN2CCCC(C(=O)Nc3ccc(-c4cccc(F)c4)cc3)C2)n1C (stereo unspecified) |  | inactive: -0.447%
COc1ccc(Cc2nc3ccc(C(=O)N4CCN(C)C(C)C4)cc3o2)cc1OC (stereo unspecified) | inconclusive [inhibitor, partial curve, poor fit] | 
Cc1ccccc1C(=O)N1CCN(c2ccc(NC(=S)NC(=O)c3ccco3)cc2)CC1 | inconclusive [inhibitor, partial curve] | 
Cc1ccc(C)c(OCCCC(=O)Nc2ccccc2C(N)=O)c1 | inconclusive [inhibitor, single point] | 
COc1cc(C(=O)N2CCN(c3cccc(C)c3C)CC2)cc(OC)c1OC | inconclusive [inhibitor, partial curve] | 
O=C(O)CCCC(=O)OCc1c(-c2ccccc2)ncc2ccccc12 | inconclusive [inhibitor, partial curve] | 
COc1ccc2oc(=O)c(/C(C)=N/Nc3ccccc3)cc2c1 | active: 44.7 µM | 
CC(=O)c1c(C)nn(C(=O)c2cccs2)c1C |  | inactive: 4.25%
O=C(NCc1ccco1)C1c2ccccc2Oc2ccccc21 | active: 39.8 µM | 
Cn1c(C(=O)NCCCN2CCOCC2)cc2c(=O)n(C)c3ccccc3c21 |  | inactive: 0%
CCCCSc1nc(-c2cccc(OC)c2)nc2c1Cc1c(CO)cnc(C)c1O2 | inconclusive [inhibitor, partial curve] | 
